No constants are given. Whether binding was seen depends on the method and setting. In cells and extracts the contact can be indirect. Some results given as binding are weak or reduced against the parent protein; the word gives no strength.
The substances below were run against HA-SIRT6 (UniProt Q8N6T7) (assay: co-IP; HEK293T cells expressing HA-SIRT6 and Flag-p65 variants; precipitated with α-HA monoclonal antibody; immunoblot).
With “Flag-p65 DNA binding domain (amino acids 1–186) (from UniProt Q04206 1-186) (domain or fragment)” the binding was “binds”.
With “Flag-p65 activation domain (amino acids 287–551) (from UniProt Q04206 287-551) (domain or fragment)” the binding was “no binding”.
With “Flag-p65 full-length (from UniProt Q04206 1-551)” the binding was “binds”.
For “Flag-p65 ΔAD (from UniProt Q04206 1-286) (domain or fragment)”, the binding was “binds”.

The substances below were run against HA-p65 (NF-κB p65) (UniProt Q04206) (assay: co-IP; HEK293T cells expressing HA-p65 together with Flag-SIRT6 variants; precipitated with a HA monoclonal antibody; immunoblot).
“Flag-SIRT6 (full-length SIRT6) (from UniProt Q8N6T7 1-355)” was tested, and the binding was “binds”.
For “Flag-SIRT6 sirtuin core domain (amino acids 34–274) (from UniProt Q8N6T7 34-274) (domain or fragment)”, the binding was “binds”.
With “Flag-SIRT6 ΔC (amino acids 275–355 was deleted) (from UniProt Q8N6T7 1-274) (domain or fragment)” the binding was “binds”.
With “Flag-SIRT6 ΔN (amino acids 1–33 was deleted) (from UniProt Q8N6T7 34-355) (domain or fragment)” the binding was “binds”.

These substances were tested against HA-p65 (NF-κB p65) (UniProt Q04206) (assay: co-IP; HEK293T cells expressing Flag-SIRT6 and HA-p65; RIPA III lysis buffer; precipitated with α-Flag or α-HA antibody overnight at 4°C, protein A/G agarose; immunoblot).
In the case of “Flag-SIRT6 (full-length SIRT6) (from UniProt Q8N6T7 1-355)”, the binding is reported as “binds”.
